Columns and labels:
[1] = Far-UV CD thermo melting experiment; assay type: physicochemical; details: approximately 0.5 mg/mL in PBS, 1° C./min from 25-89° C.; FIG. 40
Protocol: The stability of the S298N/T299A/Y300S antibody mutant was monitored by a Far-UV CD thermo melting experiment in which the CD signal at 216 nm and 222 nm was monitored as increasing temperature lead to the unfolding of the antibody (denaturation).
Temperature was controlled by a thermoelectric peltier (Jasco model AWC100) and was increased at a rate of 1° C./min from 25-89° C. The CD spectra were collected on a Jasco 815 spectrophotometer at a protein concentration of approximately 0.5 mg/mL in PBS buffer in a quartz cuvette (Hellma, Inc) with a path length of 10 mm. The scanning speed was 50 nm/min and a data pitch of 0.5 nm. A bandwidth of 2.5 nm was used with a sensitivity setting of medium. The CD signal and HT voltage were collected from 210-260 nm with data intervals of 0.5 nm and at temperature intervals of 1° C. and four replicate scans were performed for each sample.

human PBMC = assay: T cell depletion/Cytokine Release assay in PBMC; assay type: cell-based
Protocol: Fc-engineered mutants were assessed through a PBMC proliferation assay and a cytokine release assay. In the PBMC proliferation assay, human PBMC were cultured with increasing concentrations of therapeutic antibody for 72 hours, ^3H-thymidine was added and cells were harvested 18 hours later. For the T cell depletion/Cytokine Release assay, human PBMC were cultured with increasing concentrations of therapeutic antibody and were analyzed daily for cell counts and viability (Vi-Cell, Beckman Coulter) out to day 7. Cell supernatants were also harvested, stored at −20° C. and analyzed on an 8-plex cytokine panel (Bio-Rad).
Normal donor PBMC were thawed and treated under the following conditions (all in media containing complement): Untreated; BMA031, moIgG2b 10 ug/ml; OKT3, moIgG2a 10 ug/ml; H66, huIgG1 deltaAB 10 ug/ml, 1 ug/ml and 0.1 ug/ml; H66, huIgG1 S298N/T299A/Y300S 10 ug/ml, 1 ug/ml and 0.1 ug/ml.
Cytokines were harvested at day 2 (D2) and day 4 (D4) for Bioplex Analysis (IL2, IL4, IL6, IL8, IL10, GM-CSF, IFNg, TNFa). Cells were stained at D4 for CD4, CD8, CD25 and abTCR expression.

B1: H66 S298N/T299A/Y300S: anti-αβTCR clone H66 huIgG1, S298N/T299A/Y300S heavy chain (SEQ ID NO 26) (antibody)
heavy: EVQLLQSGGGLVQPGGSLRLSCAASGYKFTSYVMHWVRQAPGKGLEWVGYINPYNDVTKYNEKFKGRFTLSRDNSKNTLYLQMNSLRAEDTAVYYCARGSYYDYDGFVYWGQGTLVTVSSASTKGPSVFPLAPSSKSTSGGTAALGCLVKDYFPEPVTVSWNSGALTSGVHTFPAVLQSSGLYSLSSVVTVPSSSLGTQTYICNVNHKPSNTKVDKKV[omitted - human IgG1 Fc with S298N T299A Y300S (EU numbers)]
light: EIVLTQSPATLSLSPGERATLSCSATSSVSYMHWYQQKPGQAPRRLIYDTSKLASGVPARFSGSGSGTSYTLTISSLEPEDFAVYYCQQWSSNPLTFGGGTKVEIKRTVAAPSVFIFPPSDEQLKSGTASVVCLLNNFYPREAKVQWKVDNALQSGNSQESVTEQDSKDSTYSLSSTLTLSKADYEKHKVYACEVTHQGLSSPVTKSFNRGEC
In the case of B1, the “onset temperature for degradation” value [1] is reported as “around 63 °C”, the cytokine release (human PBMC; D2 and D4 time points) is reported as “minimal cytokine release” and the “T-cell activation by CD25 expression” value (human PBMC; cells stained at D4) is reported as “minimal T-cell activation”. The “binding to abTCR” value (human PBMC; cells stained at D4) was “binding to abTCR (with slightly different kinetics to deltaAB)”.

Source: patent publication US10064952B2, “Glycoengineered antibody drug conjugates” (Genzyme Corporation, priority 2014, dated 2018)
